Measurements: PMC4729865
These are yes or no findings as the source states them, for the method shown. Binding seen in cells or lysates may run through a third protein. Some results given as binding are weak or reduced against the parent protein; the word gives no strength. Tags and fused reporters may be left off the sequences shown.

Molecular target: T1, Cep57, exogenous (tag shown only in the figures) (human) (UniProt Q86XR8)
T1 sequence: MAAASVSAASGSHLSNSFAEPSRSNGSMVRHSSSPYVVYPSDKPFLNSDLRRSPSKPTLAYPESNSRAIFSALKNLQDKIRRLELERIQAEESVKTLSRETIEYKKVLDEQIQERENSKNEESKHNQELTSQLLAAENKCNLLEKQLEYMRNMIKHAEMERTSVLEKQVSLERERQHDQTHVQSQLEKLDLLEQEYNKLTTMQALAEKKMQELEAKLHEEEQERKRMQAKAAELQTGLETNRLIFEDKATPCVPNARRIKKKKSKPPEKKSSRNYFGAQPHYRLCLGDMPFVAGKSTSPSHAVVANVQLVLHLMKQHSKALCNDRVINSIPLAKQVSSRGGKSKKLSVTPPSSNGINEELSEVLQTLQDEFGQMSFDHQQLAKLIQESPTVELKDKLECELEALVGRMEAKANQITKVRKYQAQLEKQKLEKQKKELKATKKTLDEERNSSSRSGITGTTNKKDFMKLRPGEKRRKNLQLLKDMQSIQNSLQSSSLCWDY
Experiment: co-IP; lysates of co-transfected HEK293T cells (150 mM NaCl, 1 mM MgCl2, 50 mM Hepes pH 7.4, 1 mM EGTA, 0.5% Triton X-100); antibody 4 h at 4 °C, protein A-Sepharose 2 h; western blotting

- binding: binds
B1: Mad1, exogenous (tag shown only in the figures) (protein, UniProt Q9Y6D9 1-718)
chain: MEDLGENTMVLSTLRSLNNFISQRVEGGSGLDISTSAPGSLQMQYQQSMQLEERAEQIRSKSHLIQVEREKMQMELSHKRARVELERAASTSARNYEREVDRNQELLTRIRQLQEREAGAEEKMQEQLERNRQCQQNLDAASKRLREKEDSLAQAGETINALKGRISELQWSVMDQEMRVKRLESEKQELQEQLDLQHKKCQEANQKIQELQASQEARADHEQQIKDLEQKLSLQEQDAAIVKNMKSELVRLPRLERELKQLREESAHLREMRETNGLLQEELEGLQRKLGRQEKMQETLVGLELENERLLAKLQSWERLDQTMGLSIRTPEDLSRFVVELQQRELALKDKNSAVTSSARGLEKARQQLQEELRQVSGQLLEERKKRETHEALARRLQKRVLLLTKERDGMRAILGSYDSELTPAEYSPQLTRRMREAEDMVQKVHSHSAEMEAQLSQALEELGGQKQRADMLEMELKMLKSQSSSAEQSFLFSREEADTLRLKVEELEGERSRLEEEKRMLEAQLERRALQGDYDQSRTKVLHMSLNPTSVARQRLREDHSQLQAECERLRGLLRAMERGGTVPADLEAAAASLPSSKEVAELKKQVESAELKNQRLKEVFQTKIQEFRKACYTLTGYQIDITTENQYRLTSLYAEHPGDCLIFKATSPSGSKMQLLETEFSHTVGELIEVHLRRQDSIPAFLSSLTLELFSRQTVA
